# Experimental data published in the supplement of paper PMC11417369.
# The list shows a part of the results.
# System: PF3D7_0420300 AP2 domain 1 (GST-tagged)
# Assay: gcPBM binding intensity (ln(normalized median fluorescence intensity)); higher = stronger DNA binding
# How it was run: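 GST-tagged P. falciparum DNA-binding domains, expressed in E. coli (about 25 μg on average), were applied for 1 h to an Agilent 4 × 180k array of primer-extended double-stranded 36-bp intergenic genomic probes plus negative controls. The binding buffer was 1× PBS with 1% milk, 0.2 mg/ml BSA, 0.5% salmon testes DNA and 0.03% Triton X-100. Bound protein was detected with Alexa488 anti-GST antibody and scanned at 488 nm. Binding intensity is the highest Masliner-normalised natural-log median intensity across replicate spots of either probe orientation.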
row,Sequence,gcPBM binding intensity (ln)
1,ATATATATATTTATATGTACGAAATATAAAAAAAAA [XGTACX_site5054],9.19
2,CTTTTTTTTTTTTTTACACACCCAAATCACATACAT [CACACA_site4051],9.42
3,CTTATCAAAAAAAAAGCATGCCACAGGCAAAAGGTA [TGCATGCA_site574],9.39
4,CACCTTATAAATACTGCACACATAAAATATATATTA [CACACA_site8908],9.55
5,ACATATAAATATATTACACACACACTAAAAAAATAA [CACACA_site6209],10.1
6,ATATATATATATATATGTACATATATACATATACAT [XGTACX_site2350],9.22
7,CGCCCACAGATATATACACACATATATAAATAAATA [CACACA_site6877],9.37
8,TATGCTTTGATGAAGACACACATATAGAAGCGTATT [CACACA_site1925],9.18
9,AAAACTATTTCTTTCAGTACATATTTGGACTTATAT [XGTACX_site4977],9.09
10,TATGTTATAAAATATATATTATAATATGTATATATA [XGTACX_negctrl_site233],9.01
11,TACTTTTATAAAAATTGTACAAAAAAAAAAAAAAAA [XGTACX_site2266],8.66
12,ATATAAATTTAATACACACCCAAAAAAAAAAAAAAA [CACACA_site3750],9.37
13,ATAATAAGCAGACACACACACACAAAAAAAAAAAAA [CACACA_site6477],9.77
14,TAAATAAATACATACACACACATACAGATATATATA [CACACA_site5690],10.1
15,TTAACATACACTCTAGTGCATATATATAACAAAATA [GTGCAC_site9724],8.96
16,ATTAAAACACAATATTCACACATGTATATTATATAT [CACACA_site5191],9.45
17,AATTTAAATCTTCAAAGTACTAAAAAAAAAAATAAT [XGTACX_site8566],9.29
18,ATCATATTTATATTGGTGCATTATGCATGAAATTTA [GTGCAC_site9571],9.1
19,AAACGATTAATGTGTACACACATAGTTATAAACATA [CACACA_site7073],9.64

row,Sequence,gcPBM binding intensity (ln)
1,TTACACATGTATTTGGTGCATGTTGTTAACAAAATA,9.07
2,TCAAATTACTAAAATACACACATATTATAGATATAT [CACACA_site7233],9.53
3,TGTATATATAATAAAACACACATTTTTAATGTGCTC [CACACA_site1437],9.22
4,GTTTTATAAAAAGGCGCACACATATACATAAATATA [CACACA_site1864],9.67
5,TAAATACAAAAATGCACACGAAAAGTAATATATATA [CACACA_site6151],9.64
6,GATAAAGTACTTTATACACACAAATATTTATATATA [CACACA_site3974],9.45
7,AAAAAGAAAATATATACACACCAAAAAAAAAAAAAA [CACACA_site5698],9.46
8,TATTTTAACATGTTTTCAAAAATAAAACATATAAAT [CACACA_negctrl_site1598],8.94
9,AAACATTTACTATATTGTACTTAAGATCTTATCGTA [XGTACX_site3919],9.06
10,TAATATGACATAAGGGGTACTATATATATATATATT [XGTACX_site386],9.31
11,GAACTTTACAACCCAACACACAAAAAAGAAAAGAAA [CACACA_site1717],9.62
12,ATTGGTGTATGTTTATGTACTTATCACAATTATGAA [XGTACX_site7055],9.41
13,ATATGTTCATTTAAAAGTACTTAATATAACATTTTT [XGTACX_site3332],9.11
14,AATAGGAAAAGAAAAGCACACACATAAATAAATATA [CACACA_site8062],10.1
15,TATTCCTATATAAAGACACACATATGTAACTACGAT [CACACA_site4139],9.49
16,TGTGTTATATATAAAGAAAAAAAAAAAAAATATATA [CACACA_negctrl_site567],9.19
17,AAAAATTTAATTATTTGTACATAAAATACATTTCTG [XGTACX_site791],8.96
18,TGTACAAATTATACTTCGAACGAAGGGCATACATAT [XGTACX_negctrl_site37],9.43
19,TATTTGTGTATTTTTACACACATTAATATATTTATA [CACACA_site7562],9.48

row,Sequence,gcPBM binding intensity (ln)
1,TATATATATATTATATGTACACATTTGTGAATTATT [XGTACX_site5848],9.14
2,TATAGATAACAAAAGTGTACATGTTGTATACACATG [XGTACX_site3471],9.27
3,TATATATATAAACACACACACACACCCAAGCGTAGC [CACACA_site4210],10.1
4,AACAACTATTACTGCACACATTCTTACACTATATAA [CACACA_site654],9.75
5,TTATAAAATATTTTTTGTACACATAATAGTAAGACT [XGTACX_site933],9.12
6,CTTATATTTAGACACACACACAATAAAATGAAAAAA [CACACA_site1031],9.94
7,AACCATGTTAACAACGCATGTATATCTATGGGTTTA [TGCATGCA_site419],9.18
8,GATTAATACACATTCTTCCGACATAATAAGAAAAAG [GTGCAC_negctrl_site7],9.24
9,GATTATTTTATAAGTACACACATTTATCTATAATAA [CACACA_site7256],9.4
10,AATACATGCTTATTTTAACACACAAATGGTAGTAAT [CACACA_site8154],9.54
11,CACCCACACCAACACACACACATATATAATATATAT [CACACA_site595],10.1
12,CCATAATATTATAGACGTACGAATATATATAAAAGA [XGTACX_site7295],9.4
13,TTTTTTAAATGTCATTGTACATAATTCAATATATAA [XGTACX_site5],8.84
14,AGCTAATATATCTTATATTCATATAAAAAAATATAT [CACACA_negctrl_site1786],8.94
15,TGACTTTTTTTATGTTGTACTTATTATAAAAAAAAT [XGTACX_site7736],9.18
16,AATACATCATTAAAATGTACATATATATATACATTA [XGTACX_site132],9.16
17,ATTATAATAATGTGATGTACATTAATTGTCTTCCTA [XGTACX_site5404],9.25
18,ATATATATTAATTTTGTGCACAAATGGAAATGTTTG [GTGCAC_site9971],9.25
19,GAAATAAGGGTTATTTCACACATTGCATGTATTTTC [CACACA_site5752],9.41
